# Data taken from PubChem BioAssay AID588453 (National Center for Advancing Translational Sciences (NCATS), 2011).
# In all, about 390,000 compounds went through this assay and about 4,000 (1%) were called active. Inconclusive means that the source gave no clear call. Such entries were picked first, then a sample of the others. Calls come from the whole dose curve; as a rule, active = well fitted inhibition curve with a large enough effect; inconclusive = small, poorly fitted or top-dose-only effect; inactive = no such curve, though single readings can be large or run the other way. A potency beside an inconclusive call is a rough fit, not a confirmed value.
# Molecular target: Thioredoxin reductase 1, cytoplasmic (Rattus norvegicus) (UniProt O89049)
# Assay: qHTS Assay for Inhibitors of Mammalian Selenoprotein Thioredoxin Reductase 1 (TrxR1): qHTS; note: nearly all actives have a fitted effect of over 65% in size
# Details: recombinant rTrxR1, NADPH fluorescence consumption, selenite substrate; series mostly up to 114 µM; activity change, negative = inhibition: at the top concentration
# Source text: The selenoprotein thioredoxin reductase (TrxR; EC 1.8.1.9) is a FAD containing homodimeric pyridine nucleotide-disulfide oxidoreductase with many cellular roles. Together with NADPH and its prime substrate thioredoxin (Trx), the enzyme forms the core of the Trx system. The mammalian Trx system exerts a wide spectrum of functions including redox regulation, antioxidant defense, regulation of transcription factors as well as support of cell growth and replication. Many of these functions involve the reduction of Trx, which may subsequently reduce a number of different substrates including ribonucleotide reductase, peroxiredoxins or NFkB. Mammalian TrxR itself also has a broad substrate specificity, reducing both protein and non-protein substrates, including low molecular weight compounds such as dehydroascorbate, lipoic acid, ubiquinone, and juglone. In addition, several drugs in clinical use for anticancer treatment are indeed known to target TrxR1.
# This BioAssay is a validation of an NADPH fluorescence-based, dual-purpose qHTS rTrxR1 assay designed to find potential inhibitors and substrates of rTrxR1. For this particular BioAssay, actives are potential inhibitors. See related BioAssay for substrate data deposition.
# NIH Molecular Libraries Probe Production Network [MLPCN]
# NIH Chemical Genomics Center [NCGC]
# Assay Provider: Elias Arner, Karolinska Institute
# Assay protocol: 2 uL of reagents (buffer in column 4 as negative control and 90 nM rTrxR1 in columns 1-3 and 5-48) were dispensed into Greiner black solid-bottom 1,536-well assay plates, followed by 1 uL of NADPH (400 uM final concentration) to each well. The plates were centrifuged at 1000 rpm for 15 seconds and subsequently incubated for 5 min at room temperature (~22 deg C) to allow for rTrxR1 reduction. Compounds (23 nL) were then transferred via Kalypsys pin tool equipped with 1536-pin array (10 nL slotted pins, V&P Scientific, San Diego, CA). In addition, a duplicate 2-fold serial dilution of the control compounds auranofin, a known gold-based TrxR1 inhibitor, and juglone (5-hydroxy-1,4-naphthoquinone), a natural TrxR1 substrate, were pin-transferred to columns 2 and 3, respectively. After incubation for 15 min at room temperature (~22 deg C), 1 uL of selenite (400 uM final concentration) were dispensed to each well. The plate was immediately transferred to a ViewLux high-throughput CCD imager (PerkinElmer), wherein kinetic measurements of NADPH fluorescence (Ex 340 nm, Em 450 nm) were acquired (8 minute kinetic read, see Table 1). Read 1 was utilized to assess the capacity of a compound to serve as an rTrxR1 substrate, i.e. a decrease in NADPH fluorescence compared to the no-compound background is an indication of a substrate behavior for that particular compound. For inhibitory activity of a compound, delta values, computed as the difference in fluorescence intensity between the first and last reads of an 8-minute time kinetic window, were used. All reagents were diluted in an assay buffer consisting of 50 mM Tris-HCl, pH 7.5, 2 mM EDTA, and 0.01% Tween-20.
# Throughout the screen, reagent bottle and all liquid lines were made light-tight to minimize reagent degradation. All screening operations were performed on a fully integrated robotic system (Kalypsys, San Diego, CA) containing one RX-130 and two RX-90 anthropomorphic robotic arms (Staubli, Duncan, SC). Library plates were screened starting from the lowest and proceeding to the highest concentration, and a 'double-pinning' step of the highest concentration was required to access higher concentrations of compounds. Vehicle-only plates, with DMSO being pin-transferred to the columns 5-48, were inserted uniformly at the beginning and the end of each library in order to monitor and record any shifts in the background, which can be affected by reagent dispensers or loss in enzyme activity over time. […]
# % is set by controls: 0 for no effect and ±100 for the full control effect; potency is the fitted concentration of half-maximal effect; tags give direction and shape of the fitted curve.
# Chain of UniProt O89049 (O89049 whole entry, looked up): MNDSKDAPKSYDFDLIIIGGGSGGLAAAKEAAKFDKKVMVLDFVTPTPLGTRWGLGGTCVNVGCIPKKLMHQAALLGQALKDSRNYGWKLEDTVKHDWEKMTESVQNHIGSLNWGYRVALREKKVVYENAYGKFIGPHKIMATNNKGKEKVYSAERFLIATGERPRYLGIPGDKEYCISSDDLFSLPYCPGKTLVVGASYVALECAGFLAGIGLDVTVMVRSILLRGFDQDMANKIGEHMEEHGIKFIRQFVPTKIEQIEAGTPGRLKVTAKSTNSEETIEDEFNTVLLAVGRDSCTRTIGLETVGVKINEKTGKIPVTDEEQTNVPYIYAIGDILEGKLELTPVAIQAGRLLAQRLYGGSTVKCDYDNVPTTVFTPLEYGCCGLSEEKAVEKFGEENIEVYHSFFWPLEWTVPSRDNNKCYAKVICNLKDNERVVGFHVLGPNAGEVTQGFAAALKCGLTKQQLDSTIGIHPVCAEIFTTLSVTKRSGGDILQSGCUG
SMILES,Potency,"activity change, negative = inhibition"
COc1cc(C(C2C(=O)CC(C)(C)CC2=O)C2C(=O)CC(C)(C)CC2=O)ccc1O,active: 14.1 µM,
CCc1ccc(C2C(C#N)=C(N)OC3=C2C(=O)CCC3)s1 (stereo not given),"inconclusive: 44.7 µM [inhibitor, partial curve, poor fit]",
COc1ccc2cc(C(=O)N3CCc4ccccc43)[nH]c2c1,"inconclusive: 89.1 µM [inhibitor, partial curve, poor fit]",
Nc1ccc2c(O)cc(S(=O)(=O)O)cc2c1,"inconclusive: 79.4 µM [inhibitor, single point]",
COc1cccc(NC(=S)N2CCC(Cc3ccccc3)CC2)c1,,inactive: 12%
CCCC(O)(CCC)C(=O)NN(C(=O)CCl)c1ccccc1,active: 11.2 µM,
COc1cc(CNc2ccccc2SC)ccc1O,"inconclusive: 5.01 µM [inhibitor, full curve]",
COc1ccc(-c2ccc(-c3noc(C4CCCCC4)n3)c(OC)n2)cc1,"inconclusive: 35.5 µM [inhibitor, partial curve]",
COc1ccc(C(=O)NC(=S)Nc2nc(-c3ccc(OC)c(Br)c3)cs2)cc1Br,,inactive: 21.8%
O=[N+]([O-])c1cc(Cl)c(O)c2ncccc12,"inconclusive: 39.8 µM [inhibitor, partial curve, poor fit]",
O=C(/C=C/c1ccc(Br)o1)Nc1nccs1,active: 28.2 µM,
O=C1OC(c2ccccc2)/C(=C(/O)c2ccc(Cl)cc2)C1=O (stereo not given),"inconclusive: 39.8 µM [inhibitor, full curve]",
COc1ccc(C(=O)NC(=S)NNC(=O)c2cnccn2)cc1,"inconclusive: 44.7 µM [inhibitor, partial curve]",
COc1ccc(N2CCN(C(CNC(=O)c3c(F)cccc3F)c3ccc4c(c3)OCO4)CC2)cc1 (stereo not given),,inactive: 21% [at 57.1 µM]
CC1CCCCC1NC(=S)NC(=O)c1cccs1 (stereo not given),"inconclusive: 56.2 µM [inhibitor, partial curve, poor fit]",
S=C(Nc1ccc2c(c1)OCO2)NC1CCN(Cc2ccccc2)CC1,"inconclusive: 25.1 µM [inhibitor, single point]",
CC(C)n1c(SCC(=O)c2ccc(F)cc2)nc2c(sc3ccccc32)c1=O,,inactive: 11.7% [at 57.1 µM]
CCC(C)NC(=O)/C=C1\Sc2ccccc2NC1=O (stereo not given),"inconclusive: 79.4 µM [inhibitor, single point]",
CCOC(=O)C(=O)c1c(-c2ccc(C)cc2)nc2ccccn12,"inconclusive: 39.8 µM [inhibitor, single point]",
COc1cc(C2C(C(=O)c3ccc(C)o3)=C(O)C(=O)N2CCN2CCOCC2)ccc1OCCC(C)C (stereo not given),"inconclusive: 50.1 µM [inhibitor, partial curve]",
